± gives the standard deviation of the averaged measurements. The list shows a part of the results.
The sequences below were run on PfAP2-EXP AP2 domain (GST-tagged) (assay: gcPBM binding intensity (ln(normalized median fluorescence intensity)); higher = stronger DNA binding).
Summary of the method: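 An Agilent 4 × 180k array carrying primer-extended double-stranded 36-bp intergenic genomic probes and negative controls received GST-tagged P. falciparum DNA-binding domains expressed in E. coli, about 25 μg on average, for 1 h. The binding buffer contained 1× PBS, 1% milk, 0.2 mg/ml BSA, 0.5% salmon testes DNA and 0.03% Triton X-100. Binding intensity is the top Masliner-normalised natural-log median intensity across replicate spots of either probe orientation, read after Alexa488 anti-GST antibody staining and a 488 nm scan.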

| Sequence | gcPBM binding intensity (ln) |
| --- | --- |
| CACTTTTCATATATGACACACAAAAAATTAATAAAA [CACACA_site3639] | 8.59 ± 0.45 |
| TCATTATTATTCCTCACACATATATATATATATATT [CACACA_site4375] | 8.94 ± 0.33 |
| AGCACACCCACAAAAACACACACAAAGGTGTTCTTA [CACACA_site8355] | 8.45 ± 0.58 |
| GCATGTATAATGGTAGTGCATATAATAATATAATAA [GTGCAC_site9548] | 8.79 ± 0.21 |
| ATTGTTATTTATTGTGTGCGCATTAATACATACATA [GTGCAC_site9982] | 8.86 ± 0.2 |
| TAATGTTGAGAATTTTGTACATATAGATCAATTTAT [XGTACX_site5426] | 8.31 ± 0.38 |
| ATTTATTATGAACATACACACAAAAAAAAAAAGTAT [CACACA_site2054] | 8.82 ± 0.54 |
| TAACTTTGAAAAGATGGTACACAATAATATATATAT [XGTACX_site8667] | 9.47 ± 0.25 |
| GTATATTTTAATATGACACACATATTATATATATAT [CACACA_site2483] | 9.64 ± 0.17 |
| TGACATAAAAAATATACACACTATAATATATATACT [CACACA_site4898] | 8.4 ± 0.41 |
| AATCAATTAATATTAGCATAAAATTTTATTATTTTG [XGTACX_negctrl_site479] | 8.43 ± 0.36 |
| ATAATATGTATGGTCACACAGACAAGGAAAGAATAA [CACACA_site5164] | 9.1 ± 0.47 |
| TGTATCCATATTTGTTCACACACACCCATATTTATA [CACACA_site9190] | 9.04 ± 0.49 |
| AAAAAAAAAAATAAAGAAATCAAAATTGATGAATAA [GTGCAC_negctrl_site692] | 8.34 ± 0.4 |
| ATATGAACAAAATAAATCTCTTCAAAAATAATGTTC [GTGCAC_negctrl_site2] | 8.25 ± 0.49 |
| TAAATGATTGCATAATGTACATATAATTTTTTTTTT [XGTACX_site1988] | 8.3 ± 0.4 |
| TATATATATTTATGCTGTACCAAATAAGAATAGAAA [XGTACX_site7731] | 8.54 ± 0.39 |
| TATAAATATACACCCACACACATATATATATATATA [CACACA_site3745] | 10.2 ± 0.4 |
| TGTGTAAACATATTCACACACATAAATTCGCATATA [CACACA_site6961] | 8.26 ± 0.33 |
| TATATAAAAAATAAATGTACACATGTAATAATAAAA [XGTACX_site2640] | 8.97 ± 0.36 |
| ACAAAATATACAAAATGTACAAAATTTACAAAATAT [XGTACX_site6466] | 8.51 ± 0.3 |
| AGCACAAGCACAAGCACACATTTATATATAAATACA [CACACA_site4642] | 8.73 ± 0.38 |

| Sequence | gcPBM binding intensity (ln) |
| --- | --- |
| TACCCATGCATTTTTGCACACACATATATATATAAA [CACACA_site1429] | 8.84 ± 0.21 |
| AGACAGCGCACAAACACACAAACACCCACCCACATA [CACACA_site451] | 8.93 ± 0.62 |
| ATTTTTGTACACTTCTTTTTTTTTTTTCTTTTATGT [CACACA_negctrl_site1323] | 8.98 ± 0.35 |
| TACTTACATATAATAACACACAAGAAAAAAATAAAA [CACACA_site1033] | 8.72 ± 0.55 |
| AAAAAAAGAAAAATTGCACACACTTATAAAAATATA [CACACA_site4014] | 8.35 ± 0.42 |
| TTTTGTTATGAGAGGGTGCTAATATTTGGATATAAA | 8.49 ± 0.34 |
| AAAAAAAAAAAAAGTAGTACATAATATGTTCCTCCT [XGTACX_site8356] | 8.21 ± 0.17 |
| AGAAATAAGAAATATACACACATATATATATATATA [CACACA_site2808] | 10.2 ± 0.18 |
| TCTTATTAAAATATTTATATAGGTAATCACAATATT [GTGCAC_negctrl_site568] | 8.29 ± 0.39 |
| CCCCCCGTGTTATATACACACATAATCAAATAAAAT [CACACA_site4111] | 10.9 ± 0.078 |
| TATAAAATAAGACATGCATGTTATACATATATATAT [TGCATGCA_site314] | 9.88 ± 0.2 |
| TGAACAATGTATAATTGTACGCAACGAAAATAAAAA [XGTACX_site1559] | 9.01 ± 0.44 |
| ATCATGTTATATATGTGTACATATATATGATATAAT [XGTACX_site991] | 8.37 ± 0.39 |
| ATTATAAATTAAAATACACACATATATACCTAATAT [CACACA_site5541] | 8.47 ± 0.4 |
| AGAATAAAAATACAAGCACACATGTATGAAATATAT [CACACA_site3213] | 8.88 ± 0.5 |
| ATATATAATTACACAAATAAAAAAATAAAATGAAAT [CACACA_negctrl_site1513] | 8.77 ± 0.4 |
| AAAAAATAATAATAATGTACAAATAAAATAAAAACA [XGTACX_site6568] | 8.82 ± 0.47 |
| AAGGAATATGTATATACACACAGGTACATATATATA [CACACA_site441] | 8.655 ± 0.064 |
| ATATATTTTTACCATACACACATATAATAAATATAT [CACACA_site3722] | 8.84 ± 0.19 |
| ATAAAAATTGAAACATGTACACATATTCATTTTATA [XGTACX_site7968] | 8.34 ± 0.3 |
| TCGTGTGAAAATATTACACACATTTACTATAGTATC [CACACA_site7590] | 8.52 ± 0.34 |
| ACATATACAAGACACACACACAACGTTTTAATAAAT [CACACA_site7017] | 8.79 ± 0.49 |

| Sequence | gcPBM binding intensity (ln) |
| --- | --- |
| ATAATAATATTGTGTACACAATAATTTGTCAAATCA [CACACA_site6019] | 8.71 ± 0.2 |
| AAAAAAAAAAAAAAATGTACATATATATATATATAT [XGTACX_site876] | 9.99 ± 0.36 |
| TATTTTTTTCTTACTACACACATATATATGCTTTCC [CACACA_site4058] | 9.04 ± 0.42 |
| AATGGAAAAAAAAAAATAAATACAAATAAATACAAA [GTGCAC_negctrl_site407] | 8.59 ± 0.5 |
| TTATATTATACATACACACCCATATAACATGTTTTT [CACACA_site6539] | 8.8 ± 0.47 |
| TCATTAATATTTCATAGTACAATTTTGTCTAATTGT [XGTACX_site6720] | 8.39 ± 0.3 |
| TTTAAAAAAAAAAAAAAAAAAAAAAAAAAAAATTTG [CACACA_negctrl_site1235] | 7.64 ± 0.51 |
| AAAAAAATATATATATATATATATATATTATATATG [GTGCAC_negctrl_site654] | 8.29 ± 0.2 |
| TTTTATTATTTTTGTTGTACAGTATACTGTATGATT [XGTACX_site5359] | 8.94 ± 0.23 |
| TAATTATAGGTATACACACACATACATTTACATAAC [CACACA_site7509] | 8.88 ± 0.25 |
| TCATACATTTTCCTTGCACACATTTATAATTAATGG [CACACA_site4511] | 8.9 ± 0.37 |
| ATATACTATTATGTGTGTACATAATAATTTATTATA [XGTACX_site3776] | 8.21 ± 0.099 |
| AACAAACACAGACACACACACACACTAATATGATTA [CACACA_site8770] | 8.61 ± 0.46 |
| TAAAACAAAAAAAAGATGCACTATTTATTTTATTAT | 8.34 ± 0.28 |
| AAAGATACTTTCCTCAAACACACAAAACTATACAAC [CACACA_site1475] | 8.79 ± 0.45 |
| AATAAAAAGAAACACACACACACACCCATATATATA [CACACA_site3589] | 8.55 ± 0.13 |
| TTATCACATTATTGCACACACATAAAGAAAAAAATA [CACACA_site2841] | 8.82 ± 0.15 |
| ATATAAGAACAAAATTGTACATAAATATTTATATAA [XGTACX_site7404] | 8.54 ± 0.39 |
| AAAAAAAAGGAAAATAAAAATAAAAAAAAATAATAA [XGTACX_negctrl_site601] | 8.53 ± 0.52 |
| TGAGAAAAAAAGAATTGTACATATAAAATATAACAA [XGTACX_site3500] | 8.51 ± 0.46 |
| GAGGATCATCAATTCACACACATAAAAATGAAGTTA [CACACA_site3078] | 8.22 ± 0.49 |
| CAATTTTCTAATGAAACATGCAAAATAAAATTTTAT [TGCATGCA_site13] | 8.54 ± 0.38 |

| Sequence | gcPBM binding intensity (ln) |
| --- | --- |
| TTCTTTTTAATGTCGGTGCAACTCCATAAAAACAAA [GTGCAC_site9488] | 8.78 ± 0.16 |
| TATATAAAATTCTATTGTACATGTTATACGAAAGAA [XGTACX_site5711] | 8.65 ± 0.11 |
| CAACGATACAAAAAAGGTACACATATATATATATAT [XGTACX_site8688] | 10.2 ± 0.47 |
| CAAATACATAGACACACACACATATACATATTTATA [CACACA_site7610] | 8.63 ± 0.43 |
| TATTTGATAAATTATACACACACAATATATATAAAA [CACACA_site8625] | 8.4 ± 0.51 |
| GAATAAAGGAGAGGCACACATATATATATATATATA [CACACA_site2452] | 10.2 ± 0.25 |
| TTTATATTTAAATGCATGCACTTTCTATTTTTTTTT [GTGCAC_site9959] | 10 ± 0.33 |
| GACCATGTTAACAAAGCATGCATCTCTATATGTTTA [TGCATGCA_site358] | 8.87 ± 0.49 |
| TTATTTTATAAATCGAAAACAAACAAAAAAAAGATA [XGTACX_negctrl_site178] | 8.7 ± 0.49 |
| TTGCTGTATTTATTTTGTACACATTTGGCATTATAT [XGTACX_site3408] | 9.02 ± 0.43 |
| AAAAAAAAAAGAAAGAGTACTTTTTCAATACATATA [XGTACX_site2468] | 8.34 ± 0.43 |
| AAGAAAAACAATACGTGTACCAAGCATCCTACTAAC [XGTACX_site6628] | 8.69 ± 0.33 |
| ACATAAAATAAATATACACACATATGTATATATCAT [CACACA_site7424] | 8.22 ± 0.29 |
| TTAATATAATTAAAATGTACTTATTTGTAAACATTA [XGTACX_site6313] | 7.99 ± 0.46 |
| TTTGTAGCACTTAAGAGTACAAAATGTATAAGATTT [XGTACX_site2321] | 8.64 ± 0.42 |
| ATATATATAAACAAAAGTACATATATAAATTCATTT [XGTACX_site3482] | 8.38 ± 0.19 |
| TTAAAGTTACATTCGACACACACATAACAACTAAAT [CACACA_site9130] | 8.79 ± 0.52 |
| TCTTATATTATATTGTGTATTAAAATTTAACTTCAA [TGCATGCA_negctrl_site565] | 8.42 ± 0.38 |
| ATATATGTATATATGTACATGAATATATAAAGAAAA [CACACA_negctrl_site315] | 8.79 ± 0.32 |
| ACAAATAAATAAATATGTACTTAATTATATAATTGA [XGTACX_site5626] | 8.26 ± 0.29 |
| GTTTATATTTAATTTTTTTGTTTTTTTGTGTAATTC [XGTACX_negctrl_site194] | 8.53 ± 0.47 |
| TATTTATACTAATATGCATGTAATCGAAATACAGCT [TGCATGCA_site457] | 8.64 ± 0.36 |
